# The other results are listed elsewhere or left out.
# Legend:
# Experiment in all cases: glycan array binding signal (z-score within array); higher = stronger binding
# Settings in all cases: glycan notation: IUPAC condensed, linker removed
# [1] = target: Fuc(a1-2)[Gal(a1-3)]Gal(b1-4)GlcNAc(b1-2)Man(a1-3)[Fuc(a1-2)[Gal(a1-3)]Gal(b1-4)GlcNAc(b1-2)Man(a1-6)]Man(b1-4)GlcNAc(b1-4)[Fuc(a1-6)]GlcNAc
# In short: (§1)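 Glycan array binding is given as a within-array Z-score, which can be read as non-binding when negative. The arrays, 3228 of them, came from the Consortium for Functional Glycomics database and were retained only where the protein sequence was available. Z-scores were averaged across arrays of the same protein sequence at different concentrations or buffers and across linkers.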
# [2] = target: Fuc(a1-2)[Gal(a1-3)]Gal(b1-4)GlcNAc(b1-3)GalNAc
# In short: as §1
# [3] = target: Fuc(a1-2)[Gal(a1-3)]Gal(b1-4)GlcNAc(b1-3)[Fuc(a1-2)[Gal(a1-3)]Gal(b1-4)GlcNAc(b1-6)]GalNAc
# In short: as §1
# [4] = target: Fuc(a1-2)[Gal(a1-3)]Gal(b1-4)GlcNAc(b1-6)GalNAc
# In short: as §1
# [5] = target: Fuc(a1-2)[Gal(a1-3)]Gal(b1-4)[Fuc(a1-3)]Glc
# In short: as §1
# [6] = target: Fuc(a1-2)[Gal(a1-3)]Gal(b1-4)[Fuc(a1-3)]GlcNAc
# In short: as §1
# [7] = target: Fuc(a1-2)[Gal(a1-3)]Gal(b1-4)[Fuc(a1-3)]GlcNAc(b1-3)GalNAc
# In short: as §1
# [8] = target: Fuc(a1-2)[Gal(a1-4)]Gal(b1-4)GlcNAc
# In short: as §1
# [9] = target: Fuc(a1-2)[GalNAc(a1-3)]Gal
# In short: as §1
# [10] = target: Fuc(a1-2)[GalNAc(a1-3)]Gal(b1-3)GalNAc(a1-3)[Fuc(a1-2)]Gal(b1-4)GlcNAc
# In short: as §1
# [11] = target: Fuc(a1-2)[GalNAc(a1-3)]Gal(b1-3)GalNAc(b1-3)Gal(a1-4)Gal(b1-4)Glc
# In short: as §1
# [12] = target: Fuc(a1-2)[GalNAc(a1-3)]Gal(b1-3)GlcNAc
# In short: as §1
# [13] = target: Fuc(a1-2)[GalNAc(a1-3)]Gal(b1-3)GlcNAc(b1-2)Man(a1-3)[Fuc(a1-2)[GalNAc(a1-3)]Gal(b1-3)GlcNAc(b1-2)Man(a1-6)]Man(b1-4)GlcNAc(b1-4)GlcNAc
# In short: as §1
# [14] = target: Fuc(a1-2)[GalNAc(a1-3)]Gal(b1-3)GlcNAc(b1-2)Man(a1-3)[Fuc(a1-2)[GalNAc(a1-3)]Gal(b1-3)GlcNAc(b1-2)Man(a1-6)]Man(b1-4)GlcNAc(b1-4)[Fuc(a1-6)]GlcNAc
# In short: as §1
# [15] = target: Fuc(a1-2)[GalNAc(a1-3)]Gal(b1-3)GlcNAc(b1-3)GalNAc
# In short: as §1
# [16] = target: Fuc(a1-2)[GalNAc(a1-3)]Gal(b1-3)GlcNAc(b1-6)GalNAc
# In short: as §1
# [17] = target: Fuc(a1-2)[GalNAc(a1-3)]Gal(b1-4)Glc
# In short: as §1
# [18] = target: Fuc(a1-2)[GalNAc(a1-3)]Gal(b1-4)GlcNAc
# In short: as §1
# [19] = target: Fuc(a1-2)[GalNAc(a1-3)]Gal(b1-4)GlcNAc(b1-2)Man
# In short: as §1
# [20] = target: Fuc(a1-2)[GalNAc(a1-3)]Gal(b1-4)GlcNAc(b1-2)Man(a1-3)[Fuc(a1-2)[GalNAc(a1-3)]Gal(b1-4)GlcNAc(b1-2)Man(a1-6)]Man(b1-4)GlcNAc(b1-4)GlcNAc
# In short: as §1
# [21] = target: Fuc(a1-2)[GalNAc(a1-3)]Gal(b1-4)GlcNAc(b1-2)Man(a1-3)[Fuc(a1-2)[GalNAc(a1-3)]Gal(b1-4)GlcNAc(b1-2)Man(a1-6)]Man(b1-4)GlcNAc(b1-4)[Fuc(a1-6)]GlcNAc
# In short: as §1
# [22] = target: Fuc(a1-2)[GalNAc(a1-3)]Gal(b1-4)GlcNAc(b1-3)Gal(b1-4)GlcNAc
# In short: as §1
# [23] = target: Fuc(a1-2)[GalNAc(a1-3)]Gal(b1-4)GlcNAc(b1-3)Gal(b1-4)GlcNAc(b1-3)Gal(b1-4)GlcNAc
# In short: as §1
# [24] = target: Fuc(a1-2)[GalNAc(a1-3)]Gal(b1-4)GlcNAc(b1-3)GalNAc
# In short: as §1
# [25] = target: Fuc(a1-2)[GalNAc(a1-3)]Gal(b1-4)GlcNAc(b1-3)[Fuc(a1-2)[GalNAc(a1-3)]Gal(b1-4)GlcNAc(b1-6)]GalNAc
# In short: as §1
# [26] = target: Fuc(a1-2)[GalNAc(a1-3)]Gal(b1-4)GlcNAc(b1-6)GalNAc
# In short: as §1
# [27] = target: Fuc(a1-2)[GalNAc(a1-3)]Gal(b1-4)[Fuc(a1-3)]GlcNAc
# In short: as §1
# [28] = target: Fuc(a1-2)[GalNAc(a1-3)]Gal(b1-4)[Fuc(a1-3)]GlcNAc(b1-3)GalNAc
# In short: as §1
# [29] = target: Fuc(a1-2)[GalNAc(a1-4)]Gal(b1-4)GlcNAc
# In short: as §1
# [30] = target: Fuc(a1-2)[GalNAc(b1-3)]Gal
# In short: as §1
binder,measurement,setting,value
PX15618A-bth-503-24-503 (Bacteroides thetaiotaomicron) (protein) NKSEDKLSGDDFWAQGNETNAEAFLLSIYNSFRNATMSQRPFLTYSGDMRCAPITAYSTGDKYVAYLANNDMGELRNTYPDDARGGLIMQWDVFYTAIQDANILLAEIDKVPGMDELKRSRFKAEAIFMRSLSYFFIVRAFGDVPYYTNAYNEAPLPRTNMVIVLQNCLADLQPLLDDDPGAEVLPWSYSSYSSKGIRASRGSVIALMMHINLWLVQFDAQNKEQYYRNVVSLGEELERNNGAYSLLDINRSSVIFAGGSDEGLFEIAQNINFNEIFMMNAKFSDNVSYSCLNKSMPLFCYSGDYLMTLFPMYEDDARKELWFDEKIYSTSVSSSAPKEIKKFWNIDTYGNGTITSNSGNQIVFRYAGALLLYAEALAALGTNDTKACELLNRVRNRAHASEINTSGSELMDAIFWERCRELIGEGHYYYDLVRTGKVYNRNYCMNPMTRTNFNVGAWTWPIHRNALKNNTQIGLNLFWE,glycan array binding signal (z-score),[1],-0.198
same,glycan array binding signal (z-score),[2],-0.58
same,glycan array binding signal (z-score),[3],-0.151
same,glycan array binding signal (z-score),[4],0.235
same,glycan array binding signal (z-score),[5],-0.33
same,glycan array binding signal (z-score),[6],-0.363
same,glycan array binding signal (z-score),[7],-0.391
same,glycan array binding signal (z-score),[8],0.318
same,glycan array binding signal (z-score),[9],-0.153
same,glycan array binding signal (z-score),[10],-0.7
same,glycan array binding signal (z-score),[11],-0.307
same,glycan array binding signal (z-score),[12],-0.665
same,glycan array binding signal (z-score),[13],0.004
same,glycan array binding signal (z-score),[14],-0.46
same,glycan array binding signal (z-score),[15],-0.001
same,glycan array binding signal (z-score),[16],0.23
same,glycan array binding signal (z-score),[17],-0.32
same,glycan array binding signal (z-score),[18],-0.044
same,glycan array binding signal (z-score),[19],-0.461
same,glycan array binding signal (z-score),[20],0.939
same,glycan array binding signal (z-score),[21],-0.377
same,glycan array binding signal (z-score),[22],-0.833
same,glycan array binding signal (z-score),[23],0.336
same,glycan array binding signal (z-score),[24],-0.154
same,glycan array binding signal (z-score),[25],-0.576
same,glycan array binding signal (z-score),[26],-0.749
same,glycan array binding signal (z-score),[27],-0.159
same,glycan array binding signal (z-score),[28],1.74
same,glycan array binding signal (z-score),[29],0.616
same,glycan array binding signal (z-score),[30],0.391

# — the supplement of paper PMC8728848
